Assay results: the supplement of paper PMC3334620
The full ranking holds about 33,000 sequences; the median of “E-score (-0.5 to 0.5)” is about -0.012, and the highest 2% start at about 0.29. This is one part of the list.

target: T1, Ybr033w (UniProt P38073); test: PBM E-score (8-mer binding enrichment) (E-score (-0.5 to 0.5)); higher = stronger / more preferred TF binding; most listed sequences are background and not binding sites; conditions: protein concentration: 200 nM; construct: GST-full length
T1 sequence: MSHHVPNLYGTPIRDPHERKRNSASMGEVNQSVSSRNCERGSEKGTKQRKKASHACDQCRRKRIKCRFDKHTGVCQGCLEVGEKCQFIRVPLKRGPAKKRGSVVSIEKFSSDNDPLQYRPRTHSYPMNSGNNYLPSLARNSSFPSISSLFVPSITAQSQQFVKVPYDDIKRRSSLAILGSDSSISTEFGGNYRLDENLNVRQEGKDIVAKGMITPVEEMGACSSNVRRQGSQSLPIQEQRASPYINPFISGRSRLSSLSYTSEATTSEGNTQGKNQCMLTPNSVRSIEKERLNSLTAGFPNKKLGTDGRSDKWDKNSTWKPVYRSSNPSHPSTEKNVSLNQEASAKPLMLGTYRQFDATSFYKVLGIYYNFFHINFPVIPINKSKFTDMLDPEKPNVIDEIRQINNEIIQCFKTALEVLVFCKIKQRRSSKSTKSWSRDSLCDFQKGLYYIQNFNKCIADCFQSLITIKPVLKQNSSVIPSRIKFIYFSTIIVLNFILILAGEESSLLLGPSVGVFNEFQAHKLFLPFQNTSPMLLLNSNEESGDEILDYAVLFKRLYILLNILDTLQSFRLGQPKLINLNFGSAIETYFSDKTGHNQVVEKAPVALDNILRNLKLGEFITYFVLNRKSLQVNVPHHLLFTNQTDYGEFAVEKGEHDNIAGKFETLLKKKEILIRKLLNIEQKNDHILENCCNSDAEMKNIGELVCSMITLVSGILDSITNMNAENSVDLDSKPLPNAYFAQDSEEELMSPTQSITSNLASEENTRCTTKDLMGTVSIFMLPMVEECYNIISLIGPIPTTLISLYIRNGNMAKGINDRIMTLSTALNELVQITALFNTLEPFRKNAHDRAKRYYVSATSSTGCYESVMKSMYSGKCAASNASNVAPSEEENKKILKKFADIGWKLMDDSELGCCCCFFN
Procedure, shortened: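 Using PURExpress in vitro transcription/translation, GST-tagged yeast transcription factors were made in full-length or DNA-binding-domain form. These were applied at about 100-200 nM to double-stranded universal all-10-mer Agilent arrays, and bound protein was detected with fluorescent anti-GST. Scans were normalised with masliner before the Universal PBM Analysis Suite assigned E-scores to ungapped eight-base words pooled with their reverse complements.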

In order of falling “PBM E-score” value:
1. TCGGAAAA  0.424
2. AGGAATAT  0.353
3. ATAGTAAT  0.346
4. ATCAATAA  0.321
5. GAACATCC  0.303
6. GATAAACA  0.298
7. CAGAACAA  0.281
8. GTGTATTA  0.28
9. CACAAATA  0.246
10. AAATCACT  0.243
11. CAACTAAA  0.24
12. AGTTAACA  0.238
13. TATGAATA  0.233
14. ACGTTTAA  0.218
15. ATCTGGAA  0.214
16. AAGCTAGT  0.205
17. AACCAATT  0.204
18. AAACTTTG  0.204
19. AATTCGGA  0.195
20. GACCTATA  0.189
21. TTAACAAA  0.188
22. GTGCTAAA  0.187
23. AGAATACT  0.179
24. GACATATC  0.179
25. ATGTATGA  0.176
26. AAACCTTT  0.171
27. GTAACCTA  0.171
28. ACCAATAC  0.171
29. AACTAGAT  0.167
30. CGATACAA  0.165
31. AGTACCTA  0.164
32. ACGGGATA  0.163
33. CAACGTTG  0.156
34. GCAACTTA  0.156
35. TGAAAGCA  0.148
36. ATCTTTGC  0.138
37. CTTTGAAA  0.135
38. AACATCTC  0.134
39. ATCAATCA  0.132
40. TCCTTACA  0.13
41. AGTTACAA  0.124
42. TGCTGAAA  0.12
43. ATGCATTC  0.117
44. TACAGGTA  0.115
45. AACAGCAT  0.111
46. AGGATTAC  0.106
47. CCGCGCGG  0.104
48. GCTGTCCA  0.102
49. AGCGCAAA  0.101
50. AACGAAAC  0.0982
51. ACGATCAG  0.0882
52. ATAAGGTC  0.0871
53. ACGGGTAT  0.0865
54. GCTCCAAC  0.0804
55. TACTCATA  0.0798
56. CTTGATAC  0.0764
57. AACTAGTA  0.0764
58. TATAGCCA  0.0762
59. ACTGAACT  0.076
60. AACCGCTA  0.0756
61. CCCATTGA  0.0752
62. CAAGTAAC  0.0748
63. AATGACCA  0.0707
64. CCTCGAGC  0.064
65. GGGAGAAA  0.0625
66. AGCGCATC  0.0587
67. GTAAACAC  0.0587
68. CAACATCG  0.0554
69. CTTCCACA  0.0508
70. ATCTGGAG  0.0486
71. ATGTTAAG  0.0474
72. AGTACTTA  0.0464
73. ACGCTCCT  0.0451
74. CACTTTCA  0.0427
75. GCAAACAA  0.0425
76. GTGCTAGA  0.0408
77. AATGCTGC  0.0406
78. TCTATGCA  0.0398
79. GCACTCTA  0.0325
80. AACGAGTT  0.0306
81. CGGCAGTC  0.0207
82. AGTTCGAC  0.0206
83. AGCGAACT  0.0184
84. AAGTGTCC  0.0183
85. TAGGTTGA  0.0109
86. AAACCGGC  0.00941
87. AGCGGCCG  0.00919
88. AGTGCACT  0.00842
89. CTCGTTAA  0.00748
90. CTGTCTCC  0.00722
91. ACATAGGG  0.00674
92. CCATACCG  0.00217
93. GGCATTCA  0.00051
94. ATAGGGCA  -0.00562
95. GGCAACTA  -0.00591
96. AGTCAAAC  -0.00652
97. GACCACGA  -0.0132
98. CCCATACC  -0.0137
99. GAGCACTC  -0.0143
100. AACCCTCA  -0.017
101. GGACAGCC  -0.0224
102. AAGTCGAA  -0.0313
103. AAGTGTGA  -0.0329
104. GCTTTACA  -0.034
105. ACGAAGCC  -0.0377
106. ACACTAAG  -0.0377
107. ACCACTAC  -0.0385
108. CGGCTGAA  -0.0403
109. CTGTACCA  -0.041
110. CCTAAAAC  -0.0442
111. CAACCAGA  -0.0458
112. CACATTGG  -0.0498
113. GCTCCGCA  -0.0503
114. AGGCTGCA  -0.0505
115. CGTCAAAC  -0.0527
116. ATGCCATG  -0.0545
117. AGCCAACG  -0.0547
118. GAAATCCC  -0.0561
119. ATTAGGCA  -0.0629
120. CCCAGAAG  -0.0674
121. CACGCGTA  -0.0691
122. CCTATCAC  -0.0714
123. CCGTGTGC  -0.074
124. GCGTCGCA  -0.08
125. GGTCTGGA  -0.0823
126. AAGCGCAC  -0.0871
127. GGACACCA  -0.0887
128. CGAGGCTA  -0.0892
129. CATAGCCG  -0.0951
130. CGTGCACA  -0.0994
131. GGCGTCAC  -0.1
132. ACGAGCTA  -0.105
133. CATCGCGG  -0.106
134. AGCCTTGG  -0.107
135. CGGATCAG  -0.11
136. CAGGTTGC  -0.112
137. GCAGTGAC  -0.118
138. GCTTGCAC  -0.119
139. CGAGACGA  -0.124
140. CCAGTTCC  -0.139
141. CCGTACAC  -0.139
142. AGACCAGG  -0.14
143. GCCATCAC  -0.14
144. ATCGCCAC  -0.145
145. GCAAGACC  -0.159
146. ATGACGTG  -0.16
147. GCGCTAGC  -0.161
148. CGTCCTAC  -0.168
149. GGCCGACA  -0.176
150. CCCTCGAA  -0.182
151. CGCTGCGC  -0.191
152. GACGGCGC  -0.192
153. CCCAGGAG  -0.2
154. GCCATAAC  -0.207
155. GCCACGCA  -0.208
156. AGAGAGCA  -0.211
157. GGCCACCC  -0.214
158. CTGAGCCA  -0.228
159. CGGCTTCC  -0.229
160. GGCGTCCA  -0.229
161. GACCGTCA  -0.23
162. GCATGACC  -0.263
163. CGCAGCCC  -0.264
164. CCGGCTAG  -0.265
165. CCAGGGCA  -0.266
166. CAGGCGCC  -0.286
167. CGGCGGCA  -0.317
168. TCAGTCCA  -0.323
169. GGGCCCTA  -0.344
170. GGCGCCCC  -0.351
171. CCTTCGGC  -0.366
172. CAAGGGGG  -0.378
